For the experiment, the target named is FLAG-BCL11A-XL L319A, HEK293 (UniProt Q9H165). Kind of experiment: co-IP; HEK293 co-transfected; nuclear extracts in Triton X-100 lysis buffer; FLAG-tagged BCL11A-XL precipitated with anti-FLAG M2; Western blot. Background: Immunoblotting shows a protein as a band on a membrane.

Amino acid sequences for entries named in this document (tags omitted). A change or cut given only in a name is not applied to a line headed by its entry.
UniProt Q9H165: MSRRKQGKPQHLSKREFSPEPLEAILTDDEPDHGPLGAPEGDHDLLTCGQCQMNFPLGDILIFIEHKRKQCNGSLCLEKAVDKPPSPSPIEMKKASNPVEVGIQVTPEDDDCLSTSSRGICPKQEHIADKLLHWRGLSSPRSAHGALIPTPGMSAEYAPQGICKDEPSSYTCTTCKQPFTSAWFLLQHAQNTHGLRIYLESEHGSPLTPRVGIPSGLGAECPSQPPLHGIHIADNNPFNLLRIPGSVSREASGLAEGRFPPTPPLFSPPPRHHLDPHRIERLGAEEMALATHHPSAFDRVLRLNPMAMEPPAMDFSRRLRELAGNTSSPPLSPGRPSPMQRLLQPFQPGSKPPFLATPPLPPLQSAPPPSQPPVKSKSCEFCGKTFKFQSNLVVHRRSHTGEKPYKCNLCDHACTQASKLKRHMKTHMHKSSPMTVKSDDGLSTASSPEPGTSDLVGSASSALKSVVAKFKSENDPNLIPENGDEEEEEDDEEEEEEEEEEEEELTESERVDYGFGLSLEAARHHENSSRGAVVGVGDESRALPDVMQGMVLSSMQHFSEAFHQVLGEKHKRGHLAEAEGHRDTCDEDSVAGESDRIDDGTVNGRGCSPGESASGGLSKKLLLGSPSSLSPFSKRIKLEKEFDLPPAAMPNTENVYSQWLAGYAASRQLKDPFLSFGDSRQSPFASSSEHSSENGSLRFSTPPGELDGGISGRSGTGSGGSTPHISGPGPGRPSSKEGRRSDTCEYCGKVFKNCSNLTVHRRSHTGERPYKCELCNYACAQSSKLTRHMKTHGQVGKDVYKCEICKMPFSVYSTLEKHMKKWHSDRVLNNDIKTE
UniProt Q9Y466: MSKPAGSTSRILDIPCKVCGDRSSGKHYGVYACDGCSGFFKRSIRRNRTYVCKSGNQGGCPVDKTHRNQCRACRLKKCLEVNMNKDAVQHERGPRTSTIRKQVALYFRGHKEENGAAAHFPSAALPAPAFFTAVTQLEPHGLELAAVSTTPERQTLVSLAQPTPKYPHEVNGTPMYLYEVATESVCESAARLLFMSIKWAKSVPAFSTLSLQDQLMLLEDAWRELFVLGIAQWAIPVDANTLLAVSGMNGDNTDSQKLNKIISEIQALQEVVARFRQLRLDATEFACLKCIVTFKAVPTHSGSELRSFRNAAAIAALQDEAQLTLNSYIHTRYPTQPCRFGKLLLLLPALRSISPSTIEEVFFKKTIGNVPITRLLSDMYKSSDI

These are yes or no findings as the source states them, for the method shown. Binding seen in cells or lysates may run through a third protein. Some entries that bind do so weakly or less than the wild type.

As to “HA-TLX, HEK293 (from UniProt Q9Y466 1-385)”, the binding result is “binds”.

The record behind these values is article PMC3834829.
